Some results were stated once for a whole list of compounds, not compound by compound. For at least one compound, name, drawing or mass did not settle the structure.
System: LPS-induced TNF-α production
Test: Inhibition of LPS-induced TNF-α production in human whole blood culture
Format: cell-based
Conditions: compound 10^−5 mol/L, LPS 10 ng/ml, 6 h; for inhibition of LPS-induced TNF-α production compared to LPS alone: human whole blood culture; for concentration of LPS-induced TNF-α (TNF-α level): LPS alone 884.2±329.8 pg/ml
Procedure: Human blood sample (−20 ml) was taken from a peripheral venous (10 ml) of a healthy volunteer (20-50 years old, nonsmoker) using sterile endotoxin-free ethylenediaminetetraacetic (EDTA) tube and was immediately processed. The blood samples were divided into three different experimental conditions (groups): control, stimulating with LPS alone and LPS plus testing compound. Each group contained five blood samples from different individuals. In control group, 100 μl of whole blood sample were diluted with 900 μL of RPMI 1640 in 24 wells plate. In LPS only group or LPS plus testing compound group, 100 ul of whole blood were diluted with 1 μl testing compound or DMSO and 889 ul of RPMI 1640 (RPMI 1640 was consisted of 25 mM Hepes supplemented with 100 U/mL penicillin, 100 μg/mL streptomycin, 4 mM 1-glutamine, and 10% fetal calf serum) All samples from the three groups were incubated in 37° C. and 5% CO2 for 15 minutes, then 10 μl LPS (1 μg/ml) was added into these samples except samples of control group, and was kept in 37° C. and 5% CO2 for 6 h. The samples were placed on ice for 3 minutes and centrifuged for 10 min at 4° C. and 1500 g. The supernatants of the whole blood culture were taken and kept at −80° C. for analysis of TNF-α, IL-1, IL-6 and IL-8.
The samples from above described protocol were used to determine the release of TNF-α from whole blood culture induced by LPS stimulation and the inhibition by each of 22 tested compounds on the LPS-induced TNF-α production. The TNF-α production was assessed using human TNF-α Enzyme Immunometric Assay Kit (Lot. 235123) from R&D Systems (MN, USA), the detail methods are described as the instruction of the Kit. The concentration of LPS-induced TNF-α production in whole blood culture was 884.2±329.8 pg/ml. These 22 compounds were divided into three groups according to their inhibition potencies on the LPS-induced TNF-α production:
Since compounds #54 and #44 we obtained were mixed chemical isomers, these two compounds have been excluded from the IC50 experiments. […] concentrations of the compounds (#20, #33, #37, #39, and #48) were tested: 10^−9, 10^−8, 10^−7, 10^−6, 10^−5 and 10^−4 Molar/L. The parent compound, sinomenine, was used as a control. The IC50 was determined by program calcdemo.
The blood samples were incubated in the presence of LPS (concentration. 10 ng/ml) for 6 h. Sinomenine (SIN) was used as control. Because all tested compounds including SIN had no effect at concentration of 10^−9 on LPS-induced TNF-α production, the levels of LPS-induced TNF-α production at 10^−9 of tested compounds in the figures were equivalent to the levels of TNF-α in blood samples with LPS alone. Data in panel a of the figures (a1-a6) present the absolute values of TNF-α; data in panel b (b1-b6) present the percentage inhibition of the tested compounds on LPS-induced TNF-α production. All data were Mean±SD (n=6).

Question: Which “inhibition of LPS-induced TNF-α production compared to LPS alone” value (“inhibition … compared to LPS alone” below) does the source give for `COc1ccc2c(c1OC)C13CCN(C)C(C2)C1CC=NN(S(=O)(=O)c1ccc(C)cc1)C(O)C3` (stereo not shown) [Compound 48] here?
Answer: greater than 40%

Question: What about the “concentration of LPS-induced TNF-α (TNF-α level)” value (“concentration” below) of the same molecule?
Answer: less than 530 pg/ml

Question: Which “inhibition … compared to LPS alone” value does the source give for `COC1=C[C@@H]2[C@@H]3Cc4ccc(OC)c(O)c4[C@]2(CCN3C(=O)C2CC2)CC1=O` [Compound 10] here?
Answer: less than 30%

Question: What about the “concentration” value of the same molecule?
Answer: > 610 pg/mL

Question: `COc1ccc2c(c1O)C13CCN(C)C(C2)C1Cc1nc2ccccc2nc1C3` (stereo not shown) [Compound 44] was tested. Which “inhibition … compared to LPS alone” value did it give?
Answer: greater than 40%

Question: What about the “concentration” value of the same molecule?
Answer: less than 530 pg/ml

Question: Which “inhibition … compared to LPS alone” value does the source give for `COc1ccc2c(c1OC)C13CCN(C)C(C2)C1CC=NN(C(=O)c1ccccc1)C(O)C3` (mixture of isomers) [Compound 54] here?
Answer: greater than 40%

Question: And the “concentration” value?
Answer: less than 530 pg/ml

Question: For `COC1=C[C@@H]2[C@@H]3Cc4ccc(OC)c(O)c4[C@]2(CCN3C)CC1=O` [Compound 1, sinomenine], which “inhibition … compared to LPS alone” value is on record?
Answer: less than 30%

Question: What about the “concentration” value of the same molecule?
Answer: > 610 pg/mL

Question: How did the “inhibition … compared to LPS alone” value turn out when `COC(=O)c1cccc(C)c1S(=O)(=O)N1CC[C@@]23CC(=O)C(OC)=C[C@@H]2[C@@H]1Cc1ccc(OC)c(O)c13` [Compound 33] was run?
Answer: greater than 40%

Question: And the “concentration” value?
Answer: less than 530 pg/ml

Question: `CCCC(=O)N1CC[C@@]23CC(=O)C(OC)=C[C@@H]2[C@@H]1Cc1ccc(OC)c(O)c13` [Compound 15, 17-butanoylsinomenine] was tested. Which “inhibition … compared to LPS alone” value did it give?
Answer: less than 30%

Question: What about the “concentration” value of the same molecule?
Answer: > 610 pg/mL

Question: How did the “inhibition … compared to LPS alone” value turn out when `COC1=C[C@H]2[C@H]3Cc4ccc(OC)c(O)c4[C@@]2(CCN3S(C)(=O)=O)CC1=O` [Compound 5, 17-methanesulfonylsinomenine] was run?
Answer: less than 30%

Question: What about the “concentration” value of the same molecule?
Answer: > 610 pg/mL

Question: Which results are given for `COC1=C[C@@H]2[C@@H]3Cc4ccc(OC)c(O)c4[C@]2(CCN3C(=O)c2ccc(C)cc2)CC1=O` [Compound 39]?
Answer: inhibition of LPS-induced TNF-α production compared to LPS alone: greater than 40%; concentration of LPS-induced TNF-α (TNF-α level): less than 530 pg/ml

Question: For `CCC(=O)N1CC[C@@]23CC(=O)C(OC)=C[C@@H]2[C@@H]1Cc1ccc(OC)c(O)c13` [Compound 14, 17-propanoylsinomenine], which “inhibition … compared to LPS alone” value is on record?
Answer: less than 30%

Question: And the “concentration” value?
Answer: > 610 pg/mL

Question: What does the source list for `COc1ccc2c(c1OC)C13CCN(C)C(C2)C1CC=NN(C(=O)c1cc(C)cc(C)c1)C(O)C3` (mixture of isomers) [Compound 47]?
Answer: inhibition of LPS-induced TNF-α production compared to LPS alone: less than 30%; concentration of LPS-induced TNF-α (TNF-α level): > 610 pg/mL

Question: Which “concentration” value does the source give for `COC1=CC2[C@@H]3Cc4ccc(OC)c(O)c4[C@]2(CCN3C(=O)c2cc(C)cc(C)c2)CC1=O` (stereo partly shown) [Compound 9] here?
Answer: > 610 pg/mL

Question: Which results are given for `COC1=C[C@@H]2[C@@H]3Cc4ccc(OC)c(O)c4[C@]2(CCN3C(=O)c2ccco2)CC1=O` [Compound 36]?
Answer: inhibition of LPS-induced TNF-α production compared to LPS alone: less than 30%; concentration of LPS-induced TNF-α (TNF-α level): > 610 pg/mL

From patent US7932264B2, “Sinomenine derivatives and preparation and uses thereof” (priority 2005, dated 2011)
